# In PubChem BioAssay AID504832 (National Center for Advancing Translational Sciences (NCATS), 2011):
# In all, about 310,000 compounds went through this assay and about 18,000 (5.8%) were called active. The shares of active, inactive and inconclusive entries below differ from those in the screen. The call rests on the fitted dose curve; in most records, active means well fitted inhibition curve with a large enough effect; inconclusive means small, poorly fitted or top-dose-only effect, or another doubt; inactive means no such curve, though single readings can be large or run the other way. No potency is given beside an inconclusive call; the fits are too rough.
# Test: Primary qHTS for delayed death inhibitors of the malarial parasite plastid, 48 hour incubation
# Details: P. falciparum luciferase growth in erythrocytes; series mostly up to 28.7 µM; activity change, negative = inhibition: at the top concentration
# Summary of the method: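 Growth was read as firefly luciferase luminescence after a 48 h, 37 C, 5% CO2 exposure of compounds to reporter-bearing P. falciparum cultures (0.1% parasitemia, 2% hematocrit final) in Albumax-supplemented RPMI 1640.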
# On the % scale 0 is the no-effect control and ±100 the full control effect; potency means the concentration at half of the fitted maximal effect; tags describe the fitted curve by direction and shape.
Compound,Potency,"activity change, negative = inhibition"
Cc1ccccc1Oc1nc2c(C)cccn2c(=O)c1/C=C(\C#N)C(=O)Nc1c(C)n(C)n(-c2ccccc2)c1=O,"inconclusive [inhibitor, full curve, poor fit]",
COC(=O)c1c(NC(=O)c2ccccc2)sc2c1CC(C)(C)NC2(C)C,,inactive: 48.6%
Cn1c(-c2c(N)n(-c3ccccc3)c3nc4ccccc4nc23)nc2ccccc21,active: 9.28 µM,
O=C(C(c1ccccc1)c1ccccc1)N1CCCc2ccccc21,"inconclusive [inhibitor, single point]",
CC(=O)SC1CC(=O)N(c2c(C)cccc2C)C1=O (configuration not stated),active: 1.85 µM,
Cc1ccc(F)c(C2C3C=CCC(c4cccc(-c5ccc(N(C)C)cc5)c4)C3C(=O)N2Cc2ccccc2)c1 (configuration not stated),active: 2.94 µM,
CCN(CC)c1ccc(/C=N/N2C(C)CCCC2C)c(O)c1 (configuration not stated),"inconclusive [inhibitor, single point]",
CCOc1ccc(N(CC(=O)NCC2CCCO2)S(=O)(=O)c2ccc(OC)c(OC)c2)cc1 (configuration not stated),"inconclusive [inhibitor, single point]",
Cc1c(CN(C)C)c2c(n1C)C(=O)c1ccc(Br)cc1-2,"inconclusive [inhibitor, single point]",
COc1ccc(N2CCN(C(=O)CCc3cc(OC)c(OC)c(OC)c3)CC2)cc1,,inactive: -16.5%
C/C(=N\NC(=O)c1nn(C)c(C)c1Br)c1cccc(NC(=O)c2ccoc2C)c1,,inactive: 13.9%
CCOCCn1c(CN2CCN(C(=O)c3ccco3)CC2)nc2c1c(=O)n(C)c(=O)n2C,,inactive: -13.4%
CC(=O)c1c(C(C)=O)c(C)n(NC(=O)c2cccnc2)c1C,,inactive: 4.26%
O=C1CC(N2CCCCCC2)C(=O)N1c1ccc(F)cc1 (configuration not stated),,inactive: 4.45%
Cc1ccc(NC(=S)NC(NC(=O)N(C)C)C(Cl)(Cl)Cl)cc1 (configuration not stated),"inconclusive [inhibitor, single point]",
CCOc1ccccc1NC(=O)COC(=O)CCOc1cc(C)ccc1C,,inactive: -17%
CCOC(=O)C1=C(COC(=O)c2cccc(NC(C)=O)c2)NC(=O)NC1C (configuration not stated),,inactive: 14.6%
CCOc1ccc(N=c2oc3cc(O)ccc3cc2C(=O)NCC2CCCO2)cc1 (configuration not stated),"inconclusive [inhibitor, partial curve, poor fit]",
CN(CC(=O)Nc1cccc(F)c1)C(=O)c1ccc(S(=O)(=O)N2CCCC2)cc1,"inconclusive [inhibitor, single point]",
Cc1cccc(COCC(Cc2ccccc2)N2CCN(C(=O)c3cccc(Cl)c3)CCC2=O)c1 (configuration not stated),"inconclusive [inhibitor, single point]",
O=C(/C=C/c1ccc(Cl)cc1)NCCc1ccccc1,,inactive: 35.2%
COc1ccc(CCn2ccc(O)c(Cc3c(F)cccc3Cl)c2=O)cc1OC,"inconclusive [inhibitor, single point]",
COc1ccc(Nc2cc(C)nc(N)n2)cc1,"inconclusive [inhibitor, single point]",
CC1=C(C)CC(C(=O)NCc2ccccc2F)C(C(=O)O)C1 (configuration not stated),,inactive: 0.972%

Compound,Potency,"activity change, negative = inhibition"
O=C(Nc1ccc(Cl)cc1)[C@@H]1[C@@H]2C(=O)N(c3ccc(Cl)cc3)C(=O)[C@@H]2[C@H]2C=CC=NN21,"inconclusive [inhibitor, single point]",
CCOc1ccc(Cl)cc1S(=O)(=O)N1CCC(C(=O)NCc2ccccn2)CC1,,inactive: 9.2%
CCCc1cc(=O)oc2c3c(cc(OCC(=O)NCCN4CCOCC4)c12)OC(C)(C)CC3,"inconclusive [inhibitor, partial curve]",
CCN1CCN(C(=S)Nc2ccc(Cl)cc2)CC1,"inconclusive [inhibitor, partial curve, poor fit]",
COc1ccc(/C=N/NC(=O)c2ccncc2)cc1[N+](=O)[O-],,inactive: 28.9%
CCOC(=O)N1CCN(S(=O)(=O)N2CCCC(C(=O)NCCCN3CCCCC3CC)C2)CC1 (configuration not stated),"inconclusive [inhibitor, partial curve, poor fit]",
COc1ccc(CNC(=O)CC(C)CC2=NS(=O)(=O)c3ccccc3N2)cc1 (configuration not stated),,inactive: -3.36%
Cc1cccc(Nc2nnc(SCc3cn4ccsc4n3)s2)c1,active: 9.28 µM,
CCn1ncc(/C=C/C(=O)C2CC2)c1C,,inactive: 12.7%
Cc1ccc(CNCC(O)c2ccccc2)s1 (configuration not stated),active: 11.7 µM,
Cc1cc2ncc(S(=O)(=O)c3ccccc3)c(N)n2n1,"inconclusive [inhibitor, single point]",
O=C(CSc1nc2ccc([N+](=O)[O-])cc2[nH]1)NCCc1ccccc1,"inconclusive [inhibitor, partial curve, poor fit]",
O=C(NCCCCNC(=O)c1cccnc1Cl)c1cccnc1Cl,"inconclusive [inhibitor, partial curve, poor fit]",
O=c1cc(O)c2ccc(O)cc2o1,,inactive: 0%
O=C(CSc1ccc2ccccc2n1)N1CCC(c2noc3ccc(F)cc23)CC1,"inconclusive [inhibitor, single point]",
Cc1cccc(N2CCN(Cc3nc(-c4cccc(Cl)c4)oc3C)CC2)n1,"inconclusive [inhibitor, partial curve, poor fit]",
CCCc1nc(-c2cc3cc(C)ccc3[nH]c2=O)no1,"inconclusive [inhibitor, single point]",
COc1ccc(S(=O)(=O)NCC2CCCN(CC(C)(C)C)C2)cc1 (configuration not stated),"inconclusive [inhibitor, single point]",
NC(=O)c1ccccc1NC(=O)c1ccccc1Cl,,inactive: 2.75%
COc1ccccc1CNC(=O)c1cccc(S(=O)(=O)N(C)c2ccccc2)c1,"inconclusive [inhibitor, single point]",
CCCCCCCCCCOc1cc2c(=O)c(C(=O)OCC)c[nH]c2cc1OCC,active: 0.0015 µM,
CN1CCC(N(C)S(=O)(=O)c2ccc(NC(=O)c3cccc(C#N)c3)cc2)CC1,"inconclusive [inhibitor, single point]",
Cc1ccc(N2CC(C(=O)OCC(=O)c3c(N)n(CC(C)C)c(=O)n(C)c3=O)CC2=O)cc1 (configuration not stated),"inconclusive [inhibitor, single point]",
